# From the supplement of paper PMC11417369
# Some of the results follow.
# Test system: PfAP2-HC AP2 domain (GST-tagged)
# Assay: gcPBM binding intensity (ln(normalized median fluorescence intensity)); higher = stronger DNA binding
# How it was run: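 Each value is the highest Masliner-normalised natural-log median intensity across replicate spots of either orientation of a probe. The probes were primer-extended double-stranded 36-bp intergenic genomic sequences on an Agilent 4 × 180k array, alongside negative controls, exposed for 1 h to GST-tagged P. falciparum DNA-binding domains expressed in E. coli. Bound protein was picked up with Alexa488 anti-GST antibody and scanned at 488 nm.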
row,Sequence,gcPBM binding intensity (ln)
1,AAAAAAAAAAAAAACATACACACAAGAACAAAATAT [CACACA_site3003],10.2
2,ATGTTATATTTTTTTATACACACTGGAATATATAAA [CACACA_site215],9.55
3,TATATATATATATATTGTACTTTATTTTATATATTC [XGTACX_site5697],9.79
4,ATTATTATTGTCAAATGTACAAGCTAATAATTTTTA [XGTACX_site7167],9.32
5,ATTTATAATGAGTATACACACATATATAGATTTGCT [CACACA_site4517],9.77
6,AAAAAAAAAAAAAAAACACACATATATGTATATATA [CACACA_site3276],9.78
7,CAATTACGCAGGAATGCACACAATAATAAAAAAAAT [CACACA_site3513],9.87
8,TTTTTTCTTTTCAAGGTGCTTTATAAGAAAAAGGGA [GTGCAC_site9858],9.17
9,AAAAAAAAAAAAAACACACACACACCCAAATACATA [CACACA_site708],10.5
10,TATATTAAAACAAGCACACAATCGCATAATATCCTT [CACACA_site3210],10.1
11,TATTTTATCATTTGCACACGCACACCCACATAAAAA [CACACA_site354],10.1
12,AGTATTATATTTTCTTGTACACATGTAAAATACCTC [XGTACX_site1359],9.65
13,TATTATTCAAATAAAAGAAAAATATATATATTATAT [GTGCAC_negctrl_site273],9.49
14,ATATGTTACTTTACATAAAGAAGAAGAAGAAGAAAA [CACACA_negctrl_site985],9.66
15,TTTCAAAAAGGAAGAAAAAAAAAAAAAAAAAATATA [XGTACX_negctrl_site514],9.23
16,TCCCCCTTTTTTTGATTTTTATCTTAATTCTAAAAG [GTGCAC_negctrl_site541],9.46
17,ATATATATATATATATGTACATATTTTTTATTTTAT [XGTACX_site5761],9.69
18,AATAAAGAAGAAGAAAGTACACATTTCACAAAGGGG [XGTACX_site1308],9.78
19,GATATATGTATAATAACGCACACTACAAAAATAAAA [CACACA_site2100],9.92
20,ATAAAATATAGGTATGCACACACATATACTTCTGTG [CACACA_site8398],10.4
21,AAGGTATGATTAATCACACACATAAATATAAATACA [CACACA_site5464],10.1
22,AAGCTTCATTAATATACACACATATATGTGTATATT [CACACA_site7693],10

row,Sequence,gcPBM binding intensity (ln)
1,GTTAGTTTTAGTTCATGTACATAATAGAAAATATAT [XGTACX_site7125],9.57
2,TATATAATACGAATTTGTACATATTAAATAAATTAT [XGTACX_site93],9.64
3,AATGAATGTACATACGCATGTACTTGACTAAATTAT [TGCATGCA_site436],9.73
4,AAACTATACCAAAACACACATACAAAATATAAAAAA [CACACA_site2707],10.5
5,ATTTTCAAATTATCAGATGAATCTTTTTAAGATCTT [XGTACX_negctrl_site598],9.4
6,CTCATATATAACACATGTACACAGATTTTGCAAATG [XGTACX_site6879],9.64
7,GTCTGCATATGGATACGTACACATATATATTAATGT [XGTACX_site2260],10
8,TTTTTTTTTTTTTTTTTACACACTGCATACAAGAAA [CACACA_site3026],9.32
9,GGGAAAAAATGAGGTCGTACATTTTTCATCACAAAT [XGTACX_site8920],9.5
10,TAATATATTATAAACACATGCACATTAATAATAACT [TGCATGCA_site708],9.66
11,TATTTTTTAAAAAAACGTACAAACATAATAAAAATA [XGTACX_site1857],9.54
12,TATATATATATATATGTGCACATTTTATTAAAATGT,9.67
13,ATAGACATTTTACTTTGTACATATAAACATATATAT [XGTACX_site2733],9.86
14,ATATGAAACATGAAGGTGCATAATGTGTATATTTAT,10
15,ACATAAATATATTTTTCACACATCATTAGTTATGAA [CACACA_site4724],9.6
16,TGGTAATACCCATACACACACACATACCCATATATA [CACACA_site5509],10.3
17,ATAAATAAAACAACAGTGCAATAAAATTAGTTGAGG,10
18,TTTTTTATGAGGTGGTGTACTTTTTTTTTTTTCTTT [XGTACX_site8550],10.2
19,CAAGAAACAGTGATACGTACACATATATATATATAT [XGTACX_site3229],9.91
20,TTCAAATAAATAGTAGTGCATATTTATTAATGTAAA,9.5
21,ATTAAAGAGAGACATCAACACACATACGTATGTATA [CACACA_site8393],9.79
22,TGTATTATCTCTTATGAACACACATTTTTATTTTCA [CACACA_site9107],9.86
